# Source: PubChem BioAssay AID2147 (National Center for Advancing Translational Sciences (NCATS), 2009)
# The campaign covered roughly 230,000 compounds. About 3,600 (1.6%) were called active. Inconclusive results, whose numbers are uncertain, are shown with a selection of clear calls. Calls come from the whole dose curve; as a rule, active = well fitted inhibition curve with a large enough effect (not every such curve was filed as active); inconclusive = small, poorly fitted or top-dose-only effect, or another doubt; inactive = no such curve, though single readings can be large or run the other way. Potencies of inconclusive entries are doubtful fits and often do not repeat.
# Biological target: Lysine-specific demethylase 4E (Homo sapiens) (UniProt B2RXH2)
# Test: qHTS Assay for Inhibitors of Human Jumonji Domain Containing 2E (JMJD2E)
# Settings: JMJD2E catalytic domain, FDH-coupled NADH fluorescence (FDH is formaldehyde dehydrogenase); series mostly up to 57.1 µM; activity change, negative = inhibition: at the top concentration
# Note: nearly all actives have a fitted effect of over 50% in size.
# Potency is the fitted concentration of half-maximal effect; tags give direction and shape of the fitted curve.
# 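Throughout, for activity change, negative = inhibition: 0% = wells with enzyme and -100% = buffer wells without enzyme.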
# UniProt B2RXH2, sequence (B2RXH2 whole entry, looked up, the tested form may be a part): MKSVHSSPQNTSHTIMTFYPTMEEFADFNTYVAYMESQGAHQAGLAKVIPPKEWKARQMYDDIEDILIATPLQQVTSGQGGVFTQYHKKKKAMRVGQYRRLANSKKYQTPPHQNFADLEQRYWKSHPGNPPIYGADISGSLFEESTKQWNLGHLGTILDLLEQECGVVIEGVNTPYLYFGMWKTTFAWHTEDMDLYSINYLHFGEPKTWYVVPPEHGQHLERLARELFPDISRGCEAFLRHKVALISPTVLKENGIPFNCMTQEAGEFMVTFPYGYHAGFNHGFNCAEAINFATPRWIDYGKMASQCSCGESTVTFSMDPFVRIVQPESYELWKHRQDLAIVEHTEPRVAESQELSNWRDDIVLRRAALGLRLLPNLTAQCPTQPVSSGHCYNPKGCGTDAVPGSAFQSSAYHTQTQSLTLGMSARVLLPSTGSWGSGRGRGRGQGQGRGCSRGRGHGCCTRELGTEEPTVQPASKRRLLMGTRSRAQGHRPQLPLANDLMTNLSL
SMILES,Potency,"activity change, negative = inhibition"
CCOC(=O)N/N=C/c1ccc(N(CC)CC)cc1O,active: 28.2 µM,
NC(=O)CSc1nc2c(c(=O)n1-c1ccccc1)C1(CCCCC1)Cc1ccccc1-2,"inconclusive: 39.8 µM [inhibitor, single point]",
O=C(COC(=O)c1cn(-c2ccccc2)nc1-c1ccccc1)Nc1ncc(Cl)cc1Cl,"inconclusive: 39.8 µM [inhibitor, single point]",
O=C(NC1=C(Nc2ccc(Cl)cc2)C(=O)c2ccccc2C1=O)c1ccccc1,"inconclusive: 12.6 µM [inhibitor, partial curve]",
CCCCn1c(N)c(N(CC(C)C)C(=O)CCCSc2nncs2)c(=O)[nH]c1=O,"inconclusive: 6.31 µM [inhibitor, single point]",
O=C1c2ccccc2C(=O)c2c1cccc2-n1nnc2ccccc21,,inactive: 2.15%
CC(C)c1ccc(NC(=O)c2ccc(NS(C)(=O)=O)cc2)cc1,"inconclusive: 39.8 µM [inhibitor, single point]",
CN(C)S(=O)(=O)Nc1ccc2c(c1)Cc1ccccc1-2,,inactive: -0.134%
O=C(CSc1nnc(-c2c[nH]c3ccccc23)o1)N1CCCCC1,,inactive: -13.4%
COC(C(=O)NNC(=O)CCc1ccccc1)c1ccccc1 (stereo unspecified),,inactive: -2.79%
Clc1ccc(CNc2cnccn2)cc1,"inconclusive: 31.6 µM [inhibitor, partial curve]",
O=C(c1ccccc1)N1CCCCC(Cl)C1=O (stereo unspecified),,inactive: -14.4%
CN(C(=O)COc1ccccc1)c1nnc(-c2ccncc2)s1,"inconclusive: 25.1 µM [inhibitor, partial curve]",
c1ccc(-n2nnc3cnccc32)cc1,,inactive: -11.9%
Clc1ccccc1C1=CC(c2ccco2)n2ncnc2N1 (stereo unspecified),"inconclusive: 35.5 µM [inhibitor, single point]",
Nc1ccccc1Nc1cc(-c2cccc(Cl)c2)nn1-c1ccccc1,"inconclusive: 22.4 µM [inhibitor, single point]",
CCCn1c(CCC(=O)O)ccc1-c1ccc(F)cc1,"inconclusive: 35.5 µM [inhibitor, partial curve]",
O=S(=O)(c1ccccc1)N1CCN(c2ncnc3sc(-c4ccccc4)cc23)CC1,"inconclusive: 5.62 µM [inhibitor, single point]",
CCC(=O)N(CCc1ccccc1)Cc1cc2cc3c(cc2[nH]c1=O)OCO3,"inconclusive: 20 µM [inhibitor, partial curve]",
COc1ccc2oc(=O)c(C(=O)O)cc2c1,"inconclusive: 31.6 µM [inhibitor, partial curve]",
COCCNC(=O)CN1C(=O)NC2(CCCCCC2)C1=O,,inactive: 3.77%
